From the RNAGym collection of RNA variant scans (doi:10.1093/nar/gkz1192)
The source gives no read counts; variants with many changes may rest on few reads.

B1: CPEB3 Ribozyme (parent)
chain: UAACAGGGGGCCACAGCAGAAGCGUUCACGUCGCAGCCCCUGUCAGAUUCUGGUGAAUCUGCGAAUUCUGCUGUAUAUCUC

Variants of: B1
Assay: self-cleavage, relative activity (ratio to wild type); higher = more cleavage; in vitro, sequencing
How it was run: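 Relative activity was defined as the cleaved/total read fraction for a variant divided by the same fraction for the unmutated ribozyme. CPEB3 self-cleaving ribozyme libraries were made by rounds of error-prone PCR, barcoded, and transcribed in vitro with T7 RNA polymerase for 5 hours at 37°C, and cleavage ran through transcription plus a 15 min DNase I step before EDTA. Illumina sequencing of template-switched reverse transcripts gave the reads, and DNA sequencing mapped the barcodes. Averages come from three batches, using variants with at least 5 reads.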

| Variant | self-cleavage |
| --- | --- |
| A45G U67C U72A | 0.26 |
| A47U U49C U72C | 0.23 |
| A45G U60C U69A | 0.53 |
| A45U A56G U60C | 0.27 |
| A47G U54A U60C | 0.33 |
| A47G U60C A64G | 0.38 |
| U48C A75U U80A | 0.69 |
| G46A C62A U67C | 0.12 |
| G46A U48C A65G | 0.12 |
| U48A A64G U67C C71G | 0.12 |
| A45G U60A U66C | 0.28 |
| A45U G53U A56U U72G | 0.09 |
| G46C U76A A77G | 0.22 |
| U49A U58C U67A | 0.09 |
| U49C A56G U72C | 1.3 |
| A47G U49C A57G | 0.16 |
| U48C U60A A77C | 0.14 |
| A45U U49A G70A U72A | 0.12 |
| U49A U51C U69A | 0.4 |
| A47G G63A A77G | 0.9 |
| A45U A47G A65U | 0.11 |
| U48C A64G U74C U80A | 0.61 |
| A45G U54G U80C | 0.34 |
| U48C U49C U58C C68A | 0.16 |

| Variant | self-cleavage |
| --- | --- |
| A45U A57G U72C | 0.38 |
| G46U U48C U51A | 0.07 |
| U48A U49A A56G U60A U69A | 0.07 |
| U49A U58C A64G | 0.32 |
| U49A A56G U58C U69C U76C | 0.14 |
| A47G U72A U80A | 0.8 |
| A45U C62G G63A | 0.2 |
| U49A U54C C62U U80C | 0.15 |
| A47G U67A U69A | 0.24 |
| A45U U67G U80C | 0.1 |
| A47G A56C A65G U66C U67C | 0.14 |
| G46U A65G U69C | 0.1 |
| A45G U66A U78C | 0.12 |
| U49A U67C U69C | 0.19 |
| U48C A56C A65U A77G | 0.13 |
| A47G A65G U67C | 0.13 |
| A47G U49A U74C | 0.74 |
| G46U U58A A65G | 0.07 |
| U48C C68U U72G | 0.25 |
| A47G U67A U74C | 0.63 |
| U48C U54C U58A | 0.15 |
| A45G U69C U78A | 0.32 |
| U49A U69C U80C | 0.45 |
| A45G U60C G73U | 1.2 |

| Variant | self-cleavage |
| --- | --- |
| A45G U76C U78C | 0.93 |
| U48G U74C U76A | 1.05 |
| U48C U51A G55A A64G A65U U66C U78C | 0.24 |
| A45U C62U C68A | 0.41 |
| A45U G55A U58C C59G U60A | 0.11 |
| A47G A56U A64U | 0.15 |
| U49C A56U U67C U72C | 0.15 |
| A45U U58C U60C | 0.19 |
| G46U U66C G73U | 0.43 |
| U48C A64G U67C | 0.28 |
| A47U U60C U67C | 0.14 |
| U49A U60C A65G U66A | 0.2 |
| A45U A47C U49C | 0.29 |
| A47G A64G U80C | 0.58 |
| A47U U51A U60A U69C | 0.14 |
| U48A U54A A56G C62U | 0.2 |
| U48A A65G U78C | 0.15 |
| U49C A56U U67C | 0.12 |
| G46A U78C U80C | 0.07 |
| A47G U60A U76A | 0.45 |
| U48C A57G U60A U78A | 0.99 |
| A47U U51C U58C A64G U78C | 0.11 |
| A47U G73U U80C | 1.31 |
| U48C U69C G73A | 0.16 |

| Variant | self-cleavage |
| --- | --- |
| A45U U60C U78C | 0.4 |
| A47U U49A A64G | 0.16 |
| A47G U48C U54C G63A U76C | 0.11 |
| U49A A64G U74C C81U | 0.83 |
| U48C A56G A77U | 0.45 |
| U48C A57C U69C | 0.4 |
| A45U A57G U67A | 0.22 |
| U48C U60C U74A | 0.16 |
| A47U U49A U51C A57G | 0.2 |
| A45G U60C U66C | 0.24 |
| U48C U67A U72C | 0.36 |
| U48G U67C U78C | 0.4 |
| A47G U49C C71A U80A | 0.13 |
| U49C A56C A75G | 0.51 |
| A45G U58A A64C A77U | 0.24 |
| A47G U48C U69G U72A | 0.18 |
| A47U A57G U67C | 0.06 |
| A47G U60C U66C A75G | 0.16 |
| A45G U72A G73A | 1.26 |
| A47G U48C U60C A75G | 0.07 |
| U49A A64U U69C U78C | 0.42 |
| A47G U51C A64U U74C U78C | 0.35 |
| A45U U49C U69A U78A | 0.05 |
| U49C A56G A65G U69C | 0.12 |

| Variant | self-cleavage |
| --- | --- |
| U49A G53A U54C U72A | 0.4 |
| A45G U58C U60C U72G U76A | 0.46 |
| A45U A64G U69C | 0.41 |
| A45U C50U U51C A56U | 0.11 |
| U48C A65U U72C | 0.16 |
| U49A A64U A65G U78C | 0.14 |
| A45U U58C C68U | 0.08 |
| A45G U54G U67C | 0.19 |
| A45U U60C A65G U66A U78C U80C | 0.12 |
| G46A A57G A75G | 0.18 |
| A45U U49C G73A | 0.06 |
| U49A U54C U69C | 0.18 |
| A47G A57G U72A | 0.58 |
| U49A G70C U78C | 0.21 |
| A45U U60G C62A | 0.34 |
| G46U U49C G63A | 0.34 |
| A45U U51C G52U | 0.29 |
| A45U A64G U67G A75G | 0.1 |
| A47G A57G U76C | 0.56 |
| A45U U69C A75G A77G | 0.19 |
| U48C U69A U74C | 0.52 |
| U49A C59A U69C U72A | 0.13 |
| U49A A64G U78C | 0.36 |
| A45U U54A A56G U72A | 0.35 |

| Variant | self-cleavage |
| --- | --- |
| A47G G53C U74A A75G | 1.07 |
| A45U U48C A57G | 0.55 |
| A45U A47G A64G U66C | 0.13 |
| A47G U49C U72A | 0.24 |
| U48C U69C U80C | 0.48 |
| U48C G63A U72A | 0.27 |
| A47U U60A A77U | 0.23 |
| A47G U60A U69A A77G | 0.35 |
| A45U A47G U66C U78C | 0.09 |
| U49A A65G U76C | 0.25 |
| A45U U72C U80A | 0.42 |
| A45U U72C U80C | 0.66 |
| A47G U66C U67C | 0.22 |
| A45U C50U U54G | 0.16 |
| A47C U72A U74A | 0.68 |
| A45G U69A U80C | 0.58 |
| U48C U60C U69C U78C | 0.13 |
| A47G U49A C50U A64U U80C | 0.26 |
| U49A G52C U69A | 0.42 |
| A45U A56G U78C | 0.16 |
| U48C A56G U72C | 0.55 |
| A45U C62A U67C | 0.35 |
| A45G U74C A75U | 1.27 |
| U49A A64U U66A | 0.18 |

| Variant | self-cleavage |
| --- | --- |
| U48A U49C A56G U76C A77G | 0.96 |
| A47G U54C U60A A64G | 0.11 |
| A47U A56U U78A | 0.2 |
| A47U A57G A77G | 0.21 |
| U49A U58A A65G C71A | 0.13 |
| U48C U54C A56G C62U A64G C81U | 0.12 |
| A47G A65G U67C U72C | 0.24 |
| A47G U49A A64U | 0.16 |
| A45U G52A C79U | 0.79 |
| U49C A57G C62U U76C A77G | 0.06 |
| A47C A56G U66G | 0.11 |
| U48C U49C U54A | 0.32 |
| A47G U51C U72A U76A | 0.64 |
| U49C A56G U69A | 0.65 |
| A47C U48C U72A | 0.19 |
| A45U A65G U66C U69C | 0.12 |
| A47G C59U U74A | 0.91 |
| A47U A57G U72C | 0.2 |
| U48C U60C U76C | 0.41 |
| A45U A64G U80C | 0 |
| A47G G55U A56G U78A | 0.93 |
| U48C A64U G73A U78A | 0.68 |
| A45G U54C A56G | 0.53 |
